From the RNAGym collection of RNA variant scans (doi:10.7554/elife.90254)
Read counts are not given, so values of variants with three or more changes are uncertain.

B1: LINE1-mini (parent)
chain: GGCAGAGCUCAACACAGCGUGGCAAAGUGGCUGUGGCUAGACUGCC

Variants of: B1
Experiment: self-cleavage, relative activity (ratio to wild type); higher = more cleavage; in vitro, sequencing; the parent is a self-cleaving ribozyme

| Variant | self-cleavage |
| --- | --- |
| GGCAGAGCUCAACACAACGUGACAAAGUGGCUGUGGCUGGACUGCC [G17A G22A A39G] | 0.11 |
| GGCAGAGCUCAUCACAUCGUGGCAAAGUGGCUGUAGCUAGACUGCC [A12U G17U G35A] | 0.01 |
| CGCAGAGUUGAACACAGCGUGGAAAAUUGGCUGUGGCUAGACUGCC [G1C C8U C10G C23A G27U] | 0.01 |
| GGCAGAGCUCAACACAGCUUGGCAUAGUGGCUCUGGCUAGAAUGCC [G19U A25U G33C C42A] | 0.03 |
| GGCAGAGCUCAACACAGCGUUUCAAAGUGGCUGUGGCUAUACAGCC [G21U G22U G40U U43A] | 0.03 |
| GGCAGAGCACAACACAGCGUGGCAAAGUGGCUAUAGCUAGACUGCC [U9A G33A G35A] | 0.11 |
| UGCAGAGCUCAACACAGCGUUGCAAAGUGGCUGUGGCUAGAAUGCC [G1U G21U C42A] | 0.26 |
| GGCUGAGAUCAACUCAGCGUGGCACAGUGGCUGUGGCUAGACUGCC [A4U C8A A14U A25C] | 0.13 |
| GGCAGAGCGCAACACAGGGUGGCAAAGUGGCUGUGGCUAGAGUGCC [U9G C18G C42G] | 0.01 |
| GUCAGAGCUCAACACUGCGUGGCAAAGUGGCUGUGGCUAGACUGUC [G2U A16U C45U] | 0.01 |
| GGCAGAGCUCACCACCGUGUGGCAAAGUGGCUGUGGCUAGACUGGC [A12C A16C C18U C45G] | 0.01 |
| GGCAGAGCUCAACACAUCGAGGCAAAGUGCCUGUGGCUAGACUGCC [G17U U20A G30C] | 0.68 |
| GGCAGAGCUUAACACAGCGUGGCAAACUGGCUGUGGCUAGAAAGCC [C10U G27C C42A U43A] | 0.05 |
| GGCAGAGCUCAACACAGCGGGACAAAGUGGCUGUGGCAUGACUGCC [U20G G22A U38A A39U] | 0.38 |
| GACAGAGCUCAACACAGCCUGGCAAAGUGGCUGUGGCUAUACUGCA [G2A G19C G40U C46A] | 0.07 |
| GUCAGAGCUCAACACAGCGUGGCAAAGUGGCGGUGGCUAGACGGUC [G2U U32G U43G C45U] | 0.01 |
| GGCAGAGCUCAAAACAGCGUGGCCAAGUCGCUGUGGCUAGACUGCC [C13A A24C G29C] | 0.05 |
| GGCAGACCUCAACACAGCGUGGCAAAGUGGUUGUUGCUAGACUGCG [G7C C31U G35U C46G] | 0.04 |
| GCCAGGGCUCAACACAGCGUGGCAAAGUGGCUGUGGCUAGACUGAC [G2C A6G C45A] | 0.05 |

| Variant | self-cleavage |
| --- | --- |
| GGCAGAGCUCAACACAGCGUGACCAAGUGGCUGAGGCUAGACUGCC [G22A A24C U34A] | 0.43 |
| GGCAGAGGUCAUGACAGCGUGGCAAAGUGGCUGUGGCUAGUCUGCC [C8G A12U C13G A41U] | 0.02 |
| GGCAGAGCUCAACACAGCGUGGGAAAGUCGUUGUGGCUAGACUGCC [C23G G29C C31U] | 0.3 |
| CCCAGAGCUCAACACAGCGUGGCAAAGUGGCUGUGGCUAGAUUGCC [G1C G2C C42U] | 0.05 |
| GGCAGCGCUAAACACAGCGUGGCAAAGUGGCUGGGGCUAGACUGCC [A6C C10A U34G] | 0.03 |
| GGCAGAGCUCAACAUAGCGUGGCAAAGUGGAUGUGGCUAUAGUGCC [C15U C31A G40U C42G] | 0.07 |
| GGCAGACCUCAACACAGCGUGGAAAACUGGCGGUGGCUAGACUGCC [G7C C23A G27C U32G] | 0.02 |
| GGCAGAGCUCAAAACAGCGUGGCAAAGUGGCUGUGGAUAGAUUGCC [C13A C37A C42U] | 0.05 |
| GGCAGAGCUCAACACAGCGUGGCAACGUGGCCGUGGCUAUACUGCC [A26C U32C G40U] | 0.03 |
| GUCAGAGCUCAAUACAGCGUGGCAAAGUGGCUGUUGCUAGACUGCC [G2U C13U G35U] | 0.11 |
| GGCAGAGAUCAACACAGCGGGGCAAAGUGGCUGUGGCUAGACUGUC [C8A U20G C45U] | 0.16 |
| GGCAGAGUUCACCACAGCGUGGCAAAGUGGCUUAGACUAGACUGCC [C8U A12C G33U U34A G36A] | 0.03 |
| GGCCGAGCUCAACACAGCCUGGCAAAUUGGCUGUGGCUAGACUGUC [A4C G19C G27U C45U] | 0.05 |
| GGCAGAGCUCAACACAGCGUGGCAAAGUGGGUGUGGCUCGACAGAC [C31G A39C U43A C45A] | 0.02 |
| GGCAGAGCUCAACACGCCGUGGCAAAGUGGCUGUGGCUAGACUGAC [A16G G17C C45A] | 1.25 |
| GGCAGAGUUGAACACAGCGUGGGAAAGUGGCUGUGGCUAGACUGCC [C8U C10G C23G] | 0.02 |
| GGCAGAUAUAAACACAGCGUAGCUAAGGGGCUGUGGCUAGACUGCC [G7U C8A C10A G21A A24U U28G] | 0.02 |
| GGCAGAGCUCAACACAGCGUGGCAAAGUGGUUGAGGCUAGACAGCC [C31U U34A U43A] | 0.01 |
| GGCCGAGAUAAACACACGGUGGCACAGUGGCUGUGGCUAGACUGCC [A4C C8A C10A G17C C18G A25C] | 0.02 |

| Variant | self-cleavage |
| --- | --- |
| GGCAGAGCUAAACACAGCGUGGCAAAGUGACUGUGGCUAGACUGGC [C10A G30A C45G] | 0.02 |
| GGCAGAGCUCAACACAGCUUGGCAAAGUCGCUGUGACUAGACUGCC [G19U G29C G36A] | 0.11 |
| GGCAGAGCACAACACAGCGGGGCAAAGUGGCGGUGUCUAGACUGCC [U9A U20G U32G G36U] | 0.05 |
| GGCGGAGCUCAAAACAGCGUGGCAAAGUGGCUGUGGCUGGACUGCC [A4G C13A A39G] | 0.1 |
| GGCAUAUCUCAACACAGUGUGGCAAAGUGCCUGUGGUUAGACUGCC [G5U G7U C18U G30C C37U] | 0.74 |
| GGCAGACCCCAACACAGCGAGGCAAAUUGGCUGUGGCUAGACUGCC [G7C U9C U20A G27U] | 0.03 |
| GGCAGAGUUCAACGUAGCGUGGCGAAGUGGCUGUGGUUAGACUGCC [C8U A14G C15U A24G C37U] | 0.13 |
| GGCAGAGCUCAACACAGCGUGGUAAAGUAGCUGUGGCUAGACAGCC [C23U G29A U43A] | 0.71 |
| GGCAGAGCUCAAUACAGCGUGUCAAAGUGGCUGUGACUAGACUGCC [C13U G22U G36A] | 0.42 |
| GGCAGAGCUCAACACAGCGUGGCAAAGUGGCCGUGACAAGACUGCC [U32C G36A U38A] | 0.04 |
| UCCAGAGCCCAACACAGCGUGGCAAAGUGGCUGUGGCUAGACUGCC [G1U G2C U9C] | 0.02 |
| GGCAGAGAUCAACACAGCGUGGCAAUAUGGCUGUGGCUAGGCUGCC [C8A A26U G27A A41G] | 0.16 |
| GGCUGAGCUCAUCACAGCGUGGCAAAGUGGCUUUGGCUAGACUGCC [A4U A12U G33U] | 0.04 |
| GGCAGAGCUCAACACAGCGUGGCAAAGUGGCUGGGGGUAGACUACC [U34G C37G G44A] | 0.02 |
| GUCAGAGCUCAACACAGCGUGGCAAAGUGGCUGUGUAUAGACUGCC [G2U G36U C37A] | 0 |
| GGCAGAGCUCAACACAGCGUGGCAAAGUGGCUAUGGCUAGAGCGCC [G33A C42G U43C] | 0.02 |
| UGCAGAGCUCAACACAGCCUGGCAAAGUGGCUGUGGCUAGACUGUC [G1U G19C C45U] | 0.29 |
| GCCAGAGCUCAACACAGCGUGGCAACGUGGCUGUGGCUAGUCCGCC [G2C A26C A41U U43C] | 0.05 |
